{
  "source": "patent US20110182903A1",
  "about": "“NOVEL SOLUBLE CD83 POLYPEPTIDES, FORMULATIONS AND METHODS OF USE” (priority 2008, published 2011)",
  "molecules": {"B1": {"name": "hCD83ext-wt: recombinant human sCD83 (CD83 extracellular domain) purified from E. coli, wild type form, SEQ ID NO:5 (protein)", "chain": "GSPGTPEVKVACSEDVDLPCTAPWDPQVPYTVSWVKLLEGGEERMETPQEDHLRGQHYHQKGQNGSFDAPNERPYSLKIRNTTSCNSGTYRCTLQDPDGQRNLSGKVILRVTGCPAQRKEETFKKYRAEI", "modifications": "Synthetic extracellular domain of human CD83 with the addition of Gly-Ser-Pro-Gly at the N-terminus and Ile at the C-terminus"}},
  "key": {"[1]": {"assay": "Isoelectric focusing (IEF) gels of forced-degradation samples", "assay_type": "physicochemical", "experimental": "(§1) At the conclusion of the stated exposure time, acidic and basic samples were neutralized. All samples were stored at −20° C. until analyzed using SE-HPLC and isoelectric focusing (IEF) gels.\nData generated using SE-HPLC and isoelectric focusing (not shown), indicate that degradation products of hCD83ext are more electronegative than the starting material. This may be attributed primarily to multiple deamidations or hydrolysis and will be evaluated in on-going preformulation studies. […] Regarding charge state, the pI to be 6.9. Another major band appears in the room temperature (RT) control, with a pI of ˜6.8.\nFrom the aspect of molecular size, acidic conditions (pH˜2) favored monomer (˜0.4% aggregation, same as RT control). […] The degradation observed for this sample is most likely due to exposure to ambient conditions rather than light. […] Acidic conditions (pH˜2) appear to stabilize the protein for both the state of aggregation and the charge state of hCD83ext. The IEF profile looks intact, even when compared to the RT control."}, "[2]": {"assay": "Forced-degradation study, SEC-HPLC", "assay_type": "physicochemical", "experimental": "A force-degradation study with lot 021 of wild type hCD83ext stock solution (frozen aliquots in PBS pH 7.6, ˜6 mg CD83/mL) was performed as follows. Several aliquots were thawed and combined. Solutions were prepared as described in the table below:\nas §1"}, "[3]": {"test_system": "TNFα production by LPS/IFN-γ stimulated peripheral blood mononuclear cells (PBMCs)"}, "[4]": {"settings": "Acid 3 hrs (50 mM HCl, ambient), listed as wild type hCD83ext"}, "[5]": {"settings": "Acid 24 hrs (50 mM HCl, ambient), listed as wild type hCD83ext"}, "[6]": {"settings": "Base 3 hrs (50 mM NaOH, ambient), listed as wild type hCD83ext"}, "[7]": {"settings": "Base 24 hrs (50 mM NaOH, ambient), listed as wild type hCD83ext"}, "[8]": {"settings": "Heat 3 hrs (70° C.), listed as wild type hCD83ext"}, "[9]": {"settings": "Heat 24 hrs (70° C.), listed as wild type hCD83ext"}, "[10]": {"settings": "Oxidation 0.12% peroxide, ambient 3 hours, listed as wild type hCD83ext"}, "[11]": {"settings": "Oxidation 1.2% peroxide, ambient 3 hours, listed as wild type hCD83ext"}},
  "note": "Values joined by “and” are separate entries in the source; they are usually repeats but may differ in a detail not shown here. Identical values can stand only once. “Also recorded” adds a separate entry of the source. Like-named read-outs stand apart in the source and are kept apart here.",
  "data": [
    {"molecule": "B1", "values": [
      {"measurement": "pI", "setting": "[1]", "value": 6.9},
      {"measurement": "degradation (IEF bands)", "setting": "[1]; heat (70° C.) and basic condition (pH~12)", "value": "rapid degradation"},
      {"measurement": "% AGGREGATE", "setting": "[2]; [4]", "value": "4.06% and 4.85%"},
      {"measurement": "% FRAGMENTS", "setting": "[2]; [4]", "value": "30.45% and 30.94%"},
      {"measurement": "% MONOMER", "setting": "[2]; [4]", "value": "65.48% and 64.21%"},
      {"measurement": "% AGGREGATE", "setting": "[2]; [5]", "value": "4.06% and 4.03%"},
      {"measurement": "% FRAGMENTS", "setting": "[2]; [5]", "value": "18.40% and 18.65%"},
      {"measurement": "% MONOMER", "setting": "[2]; [5]", "value": "77.55% and 77.33%"},
      {"measurement": "% AGGREGATE", "setting": "[2]; [6]", "value": "0.66% and 1.00%"},
      {"measurement": "% FRAGMENTS", "setting": "[2]; [6]", "value": "58.57% and 57.80%"},
      {"measurement": "% MONOMER", "setting": "[2]; [6]", "value": "40.77% and 41.20%"},
      {"measurement": "% AGGREGATE", "setting": "[2]; [7]", "value": "24.06% and 23.41%"},
      {"measurement": "% FRAGMENTS", "setting": "[2]; [7]", "value": 22.15, "unit": "%"},
      {"measurement": "% MONOMER", "setting": "[2]; [7]", "value": "53.54% and 54.44%"},
      {"measurement": "light stability", "setting": "[2]; D65/ID65 light source 1 or 5 days", "value": "light-stable"},
      {"measurement": "% FRAGMENTS", "setting": "[2]; [8]", "value": "32.43% and 32.44%"},
      {"measurement": "% MONOMER", "setting": "[2]; [8]", "value": "65.96% and 66.07%"},
      {"measurement": "% AGGREGATE", "setting": "[2]; Heat 24 hrs (70° C.)", "value": 0.00, "unit": "%"},
      {"measurement": "% FRAGMENTS", "setting": "[2]; [9]", "value": "68.07% and 64.55%"},
      {"measurement": "% MONOMER", "setting": "[2]; [9]", "value": "31.93% and 35.45%"},
      {"measurement": "% AGGREGATE", "setting": "[2]; [10]", "value": "11.48% and 12.53%"},
      {"measurement": "% FRAGMENTS", "setting": "[2]; [10]", "value": "37.26% and 36.96%"},
      {"measurement": "% MONOMER", "setting": "[2]; [10]", "value": "51.25% and 50.51%"},
      {"measurement": "% AGGREGATE", "setting": "[2]; [11]", "value": "9.62% and 9.51%"},
      {"measurement": "% FRAGMENTS", "setting": "[2]; [11]", "value": "52.99% and 53.03%"},
      {"measurement": "% MONOMER", "setting": "[2]; [11]", "value": "37.38% and 37.46%"},
      {"measurement": "aggregation", "setting": "[2]; acidic conditions (pH~2)", "value": "~0.4", "unit": "%"},
      {"measurement": "ability to inhibit TNFα production (relative activity)", "setting": "[3]; FIG. 26, 0.5, 5, 25 and 100 μg/ml, wild type at pH 4.5 or 5.5, m3 at pH 5.5, m5 at pH 7.6, listed as hCD83ext wild type", "value": "retains greater activity when formulated at pH 4.5 than when formulated at pH 5.5; also recorded: more active than formulations at pH 7.6"},
      {"measurement": "ability to inhibit TNFα production (relative activity)", "setting": "[3]; FIGS. 28, 29, wild type buffer exchanged to pH 4.5 or 5.5, m3 at pH 5.5, m5 at pH 7.6", "value": "can be enhanced by formulating the material in an acidic buffer (pH 4.5 or pH 5.5)"}
    ]}
  ]
}
